Results: PubChem BioAssay AID1460 (National Center for Advancing Translational Sciences (NCATS), 2008)
Hit rate of the full screen: of about 270,000 compounds, about 5,800 (2.1%) were called active. Inconclusive results, whose numbers are uncertain, are shown with a selection of clear calls. The call rests on the fitted dose curve; in most records, active means well fitted inhibition curve with a large enough effect; inconclusive means small, poorly fitted or top-dose-only effect; inactive means flat fitted curve, though single readings scatter. Potencies of inconclusive entries are doubtful fits and often do not repeat.

The compounds below were run against Microtubule-associated protein tau (Homo sapiens) (UniProt P10636) (assay: qHTS for Inhibitors of Tau Fibril Formation, Thioflavin T Binding). Conditions: recombinant tau K18 P301L (four-repeat tau fragment), heparin-induced fibrillization, ThT fluorescence; series mostly up to 57.4 µM; activity, negative = inhibition: at the top concentration.
Chain of UniProt P10636 (P10636 whole entry, looked up, the tested form may be a part): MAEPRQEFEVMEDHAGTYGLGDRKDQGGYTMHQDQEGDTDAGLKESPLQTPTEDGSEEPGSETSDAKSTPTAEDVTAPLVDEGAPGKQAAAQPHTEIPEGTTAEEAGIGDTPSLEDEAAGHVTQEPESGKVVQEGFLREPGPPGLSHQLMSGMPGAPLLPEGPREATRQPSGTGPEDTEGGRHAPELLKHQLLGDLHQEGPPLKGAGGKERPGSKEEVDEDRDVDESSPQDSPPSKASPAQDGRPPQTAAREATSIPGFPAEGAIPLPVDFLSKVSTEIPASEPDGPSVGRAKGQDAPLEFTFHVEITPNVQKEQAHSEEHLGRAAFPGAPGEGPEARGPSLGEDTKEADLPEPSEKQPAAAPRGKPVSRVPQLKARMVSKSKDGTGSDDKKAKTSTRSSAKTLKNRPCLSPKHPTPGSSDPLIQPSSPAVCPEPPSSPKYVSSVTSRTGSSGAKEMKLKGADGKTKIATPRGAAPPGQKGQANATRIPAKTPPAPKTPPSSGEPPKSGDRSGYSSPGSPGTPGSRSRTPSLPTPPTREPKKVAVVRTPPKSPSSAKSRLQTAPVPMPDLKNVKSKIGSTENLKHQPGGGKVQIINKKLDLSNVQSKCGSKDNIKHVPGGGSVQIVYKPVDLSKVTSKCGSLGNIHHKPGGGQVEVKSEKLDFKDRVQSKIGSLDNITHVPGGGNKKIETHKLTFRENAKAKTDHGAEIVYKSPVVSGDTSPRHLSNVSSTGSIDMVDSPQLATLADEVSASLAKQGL
Summary of the method: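 K18 P301L tau (15 uM + 0.24 uM Alexa 594-tagged), heparin 20 uM, NaOAc pH 7, 6 h 37 C; ThT 30 uM, 1 h RT, ex 450/em 510 nm.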
Further: nearly all actives have a fitted effect of over 55% in size.
On the % scale 0 is the no-effect control and ±100 the full control effect; potency means the concentration at half of the fitted maximal effect; tags describe the fitted curve by direction and shape.

SMILES	Potency	activity, negative = inhibition
COC(=O)c1ccc(Nc2cc(C)nc3ccc(C)cc23)cc1	inconclusive: 39.8 µM [inhibitor, single point]	–
COc1ccc(CCC(=O)N(c2nnc(-c3cccnc3)s2)C(C)C)cc1	inconclusive: 28.2 µM [inhibitor, single point]	–
CCOC(=O)/C(C#N)=C/c1ccc(N2CCCCC2)cc1	inconclusive: 35.5 µM [activator, single point]	–
CCOC(=O)c1oc2c(CN3CCN(CCO)CC3)c(O)c(CC)cc2c(=O)c1-c1nc2ccccc2s1	inconclusive: 22.4 µM [inhibitor, partial curve]	–
COc1ccc2ccccc2c1C1CC(=O)N2CN(C)CSC2=C1C#N (stereo not given)	active: 22.4 µM	–
NC(=O)c1sc(-c2ccsc2)cc1N	inconclusive: 25.1 µM [inhibitor, partial curve, poor fit]	–
COc1ccc(CCNC(=O)Cn2nnc(-c3ccc(N4CCOCC4)cc3)n2)cc1OC	inconclusive: 3.16 µM [inhibitor, full curve]	–
O=C(c1ccc2c(c1)N(Cc1ccc(F)cc1)C(=O)c1ccccc1S2(=O)=O)N1CCC(Cc2ccccc2)CC1	–	inactive: 5.88%
COc1ccc(-n2ccn(Cc3ccc(C)cc3)c(=O)c2=O)cc1OC	inconclusive: 12.6 µM [inhibitor, partial curve]	–
C/C=C/C(=O)Nc1ccc(N2CCN(c3ccc(C(F)(F)F)cn3)CC2)nc1	inconclusive: 3.55 µM [inhibitor, partial curve, poor fit]	–
Cc1cccc(C2NC(=O)c3c(sc(C)c3C)N2)c1O (stereo not given)	active: 15.8 µM	–
O=C1CC(=O)N(c2ccccc2)N1c1ccccc1	inconclusive: 8.91 µM [inhibitor, partial curve]	–
CC(C)CN(C(=O)c1cc2ccccc2o1)c1c(N)n(CC(C)C)c(=O)[nH]c1=O	–	inactive: -3.85%
COc1ccccc1N1CCN(C2=CC(=O)CCC2)CC1	inconclusive: 22.4 µM [inhibitor, partial curve]	–
COc1ccc(-n2c(C)cc(-c3csc(N)n3)c2C)cc1	inconclusive: 10 µM [inhibitor, partial curve]	–
CCOc1ccccc1C1CC(c2ccc(Br)cc2)Nc2nc(N)nn21 (stereo not given)	–	inactive: 5.43%
CCOC(=O)CSC1=NC(=O)/C(=C/c2ccc(Br)cc2)S1	inconclusive: 31.6 µM [inhibitor, partial curve]	–
COc1cc(OC)c(NC(=O)Nc2ccccc2OCc2cc(=O)n3cc(C)ccc3n2)cc1Cl	inconclusive: 20 µM [inhibitor, partial curve]	–
COc1ccc2nc(SCC(=O)Nc3ccc(S(=O)(=O)N4CCCC4)cc3)c(C#N)cc2c1	inconclusive: 1 µM [inhibitor, full curve, poor fit]	–
CCCCCCCCCCC(C)(C)C(=O)Nc1c(OC)cc(OC)cc1OC	inconclusive: 25.1 µM [inhibitor, single point]	–
CCN1CCN(S(=O)(=O)c2cc(OC)c(Cl)cc2OC)CC1	–	inactive: -8.25%
Cc1ccc(NC(=O)CC2Nc3cccc4cccc(c34)NC2=O)cc1 (stereo not given)	active: 14.1 µM	–
CCOC(=O)c1c(-c2ccc(C)cc2C)csc1NC(=O)CSc1nnnn1C	inconclusive: 17.8 µM [inhibitor, partial curve]	–
COc1cccc(/C=N/N2C(=O)CSC2=S)c1O	active: 15.8 µM	–

SMILES	Potency	activity, negative = inhibition
Cc1ccc(Sc2nnc(Cc3ccccc3)c3ccccc23)cc1	inconclusive: 25.1 µM [inhibitor, partial curve]	–
COC(=O)CC1(c2ccccc2)C(=O)c2ccccc2C1=O	–	inactive: -7.94%
COc1ccc(C2C=C(C34CC5CC(CC(C5)C3)C4)NC(=S)N2)cc1OC (stereo not given)	inconclusive: 3.16 µM [inhibitor, partial curve]	–
FC(F)(F)c1ccc(C2[C@H]3CN(Cc4cccnc4)[C@H](c4ccccc4)C34CC2(c2ccccc2)C4)cc1 (stereo not given in full)	inconclusive: 0.398 µM [inhibitor, partial curve, poor fit]	–
O=C1Nc2ccc(F)cc2C12Nc1ccccc1-c1nnc(SCc3ccccc3F)nc1O2 (stereo not given)	active: 25.1 µM	–
CC(=O)n1cc(/C=C2/N=C(c3ccccc3)OC2=O)c2ccccc21	inconclusive: 14.1 µM [inhibitor, partial curve]	–
O=c1c2c(nc3c(-c4ccc(Cl)cc4)c[nH]n13)CCCC2	inconclusive: 15.8 µM [inhibitor, partial curve]	–
Cc1ccc(Cl)cc1N1C(=O)N(Cc2ccc(C#N)cc2)c2ccccc2S1(=O)=O	–	inactive: 8.37%
O=C1CCCc2c1[nH]c1ccc(Br)cc21	inconclusive: 12.6 µM [inhibitor, single point]	–
O=C1c2[nH]nc(-c3ccccc3O)c2C(c2cccc(Cl)c2)N1Cc1ccco1 (stereo not given)	inconclusive: 39.8 µM [inhibitor, single point]	–
CCNC(=O)CSc1nnc(CN2CCCCCC2=O)n1-c1ccccn1	–	inactive: -2.25%
CCN(CC)c1ccc(NC(=O)c2cncc(Br)c2)cc1	inconclusive: 15.8 µM [inhibitor, partial curve]	–
CCc1cc2c(=O)c(-c3cnn(-c4ccccc4)c3)c(C)oc2cc1OCC(=O)Nc1ccc(F)c(F)c1	–	inactive: -9.24%
CCOc1ccc(-c2cc(N)n(S(=O)(=O)c3ccc(OC)c(OC)c3)n2)cc1	–	inactive: -9.09%
CCOC(=O)c1c(NC(=S)Nc2ccccc2)sc2c1CC(C)(C)SC2	inconclusive: 11.2 µM [inhibitor, partial curve, poor fit]	–
CCc1ccc(-c2cn3nc(-c4ccccc4)cnc3n2)cc1	inconclusive: 3.98 µM [inhibitor, partial curve]	–
O=C(CCc1c[nH]c2ccccc12)NCC1CCCO1 (stereo not given)	–	inactive: -11.5%
CCOC(=O)c1oc2ccccc2c1CSc1nnnn1-c1ccc(C)cc1	–	inactive: -20.1%
Cc1ccc2nc(N(CCCN(C)C)C(=O)c3ccc(Br)s3)sc2c1	inactive	–
Cc1ccc(Nc2nc(N)c([N+](=O)[O-])c(N3CCC(C)CC3)n2)cc1C	inconclusive: 12.6 µM [inhibitor, partial curve]	–
COc1ccc(Br)cc1C1CC(=O)N2CN(C)CSC2=C1C#N (stereo not given)	inconclusive: 35.5 µM [inhibitor, partial curve]	–
O=c1[nH]c(N/N=C/c2ccc(O)cc2)nc2ccccc12	inconclusive: 3.55 µM [inhibitor, full curve]	–
N/C(=N\c1nc2c(c(=O)[nH]1)CCCC2)Nc1ccccc1	inconclusive: 12.6 µM [inhibitor, partial curve]	–
Cc1nc2ccccn2c1C(=O)/C=C/c1ccc(F)cc1	–	inactive: 2.59%

SMILES	Potency	activity, negative = inhibition
Cc1ccc(Nc2nc(COC(=O)C3CC3)cs2)cc1	inconclusive: 17.8 µM [inhibitor, partial curve]	–
CCCN=C1N/C(=C\c2ccco2)C(=O)N1c1ccccc1	inconclusive: 39.8 µM [inhibitor, single point]	–
CCOC(=O)C1CCN(C(=O)Cn2cc(C(=O)C3CC3)c3ccccc32)CC1	–	inactive: -3.21%
CCN(CC)C(=O)CSC1=C(C#N)C(c2cccs2)C=C(C)N1 (stereo not given)	–	inactive: -12.9%
CCOc1ccc2c(c1)c(N=O)c(O)n2C	inconclusive: 14.1 µM [inhibitor, partial curve]	–
Cc1ccc(NC(=O)c2cc3c(=O)[nH]c4ccccc4c3n2C)cc1F	inconclusive: 0.0282 µM [inhibitor, full curve, poor fit]	–
Cc1cc(C)c(C(=O)Cn2cnc3cc([N+](=O)[O-])ccc3c2=O)cc1C	inconclusive: 10 µM [inhibitor, partial curve]	–
COc1ccc(-c2cc(C(C)=O)c(C)n2CCC(=O)NCc2ccc(F)cc2)cc1	–	inactive: -13.7%
O=C1/C(=C/c2cccnc2)SC(=S)N1C1CCS(=O)(=O)C1 (stereo not given)	inconclusive: 15.8 µM [inhibitor, partial curve]	–
Cc1c(O)ccc(C(=O)CN2CCN(Cc3ccc4c(c3)OCO4)CC2)c1O	inconclusive: 25.1 µM [inhibitor, partial curve]	–
N#C/C(=C\N1CCN(Cc2ccc3c(c2)OCO3)CC1)c1nc2ccccc2s1	inconclusive: 4.47 µM [inhibitor, partial curve]	–
Cc1[nH][nH]c(=O)c1N=Nc1ccccc1C#N	inconclusive: 17.8 µM [inhibitor, partial curve]	–
O=[N+]([O-])c1cc2c(cc1/C=N/NS(=O)(=O)c1ccc(Br)cc1)OCO2	inconclusive: 14.1 µM [inhibitor, partial curve]	–
O=C1C(Cl)=C(NCCN2CCCCC2)C(=O)c2ccccc21	active: 10 µM	–
CCOC(=O)c1oc2ccccc2c1NC(=O)Cc1cccs1	inconclusive: 17.8 µM [inhibitor, partial curve]	–
CCc1ccccc1N(CC(=O)N1CCN(c2ccc(F)cc2)CC1)S(C)(=O)=O	–	inactive: -2.67%
CCOC(=O)c1cccc(NC(=O)CCCn2c(C)c3cnn(-c4ccccc4)c(=O)c3c2C)c1	–	inactive: -17.3%
Cc1cccnc1N(C(=O)Nc1cccc(Cl)c1)C1=NCC(C)(C)S1	–	inactive: -5.51%
O=C(N/N=C/c1ccccn1)c1cc(-c2ccccc2)nc2ccccc12	inconclusive: 22.4 µM [inhibitor, single point]	–
Cc1cc(N2CCC(C)CC2)nc2ccc(NC(=O)CCC(=O)N3CCN(c4cccc(C(F)(F)F)c4)CC3)cc12	inconclusive: 12.6 µM [inhibitor, partial curve, poor fit]	–
Cc1cc(C)c2[nH]c(=O)c(C(c3nnnn3CC3CCCO3)N3CCC(C)CC3)cc2c1 (stereo not given)	–	inactive: -24.1%
COc1ccc(S(=O)(=O)N(CC(=O)N2CCC(C)CC2)c2ccc(C)cc2)cc1	–	inactive: -6.91%
